Measured values: PubChem BioAssay AID504374 (National Center for Advancing Translational Sciences (NCATS), 2011)
Screen size: about 1,500 compounds; about 100 (6.7%) were called active. Inconclusive results (about 7%) are left out. Calls come from the whole dose curve; as a rule, active = well fitted inhibition curve with a large enough effect; inconclusive = small, poorly fitted or top-dose-only effect, or effect the other way; inactive = flat fitted curve, though single readings scatter. The list shows a part of the results.

molecular target: Runt-related transcription factor 1 (Homo sapiens) + Core-binding factor subunit beta (Homo sapiens) (UniProt Q01196+Q13951); assay: qHTS Assay for Compounds Blocking the Interaction Between CBF-beta and RUNX1 for the Treatment of Acute Myeloid Leukemia: Hit Validation; conditions: AlphaScreen CBFb-His/RUNX1-biotin binding; series mostly up to 59.8 µM; activity, negative = inhibition: at the top concentration; note: nearly all actives have a fitted effect of over 60% in size
UniProt Q01196, sequence (Q01196 whole entry, looked up): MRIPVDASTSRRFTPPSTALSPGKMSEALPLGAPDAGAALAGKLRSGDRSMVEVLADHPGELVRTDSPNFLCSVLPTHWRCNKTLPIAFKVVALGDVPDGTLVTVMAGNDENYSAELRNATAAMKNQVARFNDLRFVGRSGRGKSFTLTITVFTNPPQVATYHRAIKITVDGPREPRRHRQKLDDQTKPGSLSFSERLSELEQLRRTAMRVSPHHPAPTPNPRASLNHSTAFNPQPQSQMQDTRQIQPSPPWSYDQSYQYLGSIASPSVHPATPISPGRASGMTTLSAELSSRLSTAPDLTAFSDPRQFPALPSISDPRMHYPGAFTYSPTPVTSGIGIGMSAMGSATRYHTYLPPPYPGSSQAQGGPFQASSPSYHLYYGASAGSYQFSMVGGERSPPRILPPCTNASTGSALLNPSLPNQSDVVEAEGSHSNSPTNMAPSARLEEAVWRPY
UniProt Q01196, sequence (Q13951 whole entry, looked up): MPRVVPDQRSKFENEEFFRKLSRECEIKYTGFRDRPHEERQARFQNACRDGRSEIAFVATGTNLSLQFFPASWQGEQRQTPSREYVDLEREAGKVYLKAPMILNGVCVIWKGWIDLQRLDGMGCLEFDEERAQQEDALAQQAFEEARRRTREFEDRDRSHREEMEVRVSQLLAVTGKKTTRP
Excerpt: NIH Chemical Genomics Center [NCGC]
NIH Molecular Libraries Probe Production centers Network [MLPCN]
Assay Submitter (PI): Paul Liu
Core Binding Factor (CBF) abnormalities are associated with 20-25% of all acute myeloid leukemias (AML), of which 5-10% are further sub classified as acute myelomonocytic leukemia with eosinophilia, also known as M4Eo in the FAB classification scheme. This subtype of leukemia is usually associated with chromosome 16 inversion (p13:q22). Chromosome 16 inversion results in formation of the fusion oncogene CBFB-MYH11, which encodes the fusion protein CBF-beta-SMMHC.
It has been hypothesized that the interference of CBF-beta and RUNX1 binding could have therapeutic implications for patients with CBF mediated leukemias. We developed a CBF-beta and RUNX1 binding assay in AlphaScreenTM format and optimized it for high throughput screening to search for inhibitors. The goal of this project is to screen MLPCN's compound collection (MLSMR) for identifying the inhibitors of the interaction between CBF-beta and RUNX1 proteins as research probes. If these probes work well in the animal models, the ultimate goal of this project is to development a new drug treatment for this disease.
This assay can not be used to assess how apparent inhibitors interfere with protein binding, and whether inhibitors specifically bind to either protein. Disruption of this protein-protein interaction, through any mechanism, is the intended target activity.
The present data set was run to confirm the activity of hits from the primary screen.
NCGC Assay Protocol Summary:
Step, Parameter, Description
(1) Reagent, 3 uL CBFb-His/RUNX1-biotin mix incubated together for 20 minutes at room temperature (30 nM each)
(2) Compound or control, 23 nL compound stock solution
(3) Incubation, 15 minutes at Room temperature
(4) Reagent, 1 uL 50 ng each of beads (Nickel beads and streptavidin beads)
(5) Incubation, 90 minutes at Room temperature
(6) Detection, Excitation=365 nm Emission=440 nm, Envision reader in AlphaScreenTM mode
Keywords: MLSMR, MLPCN, NIH Roadmap, qHTS, NCGC, Core binding factor, CBF, CBF-beta, Acute myeloid leukemia
% is set by controls: 0 for no effect and ±100 for the full control effect; potency is the fitted concentration of half-maximal effect.

Row | Compound | activity, negative = inhibition | Potency
1 | CCOC(=O)Nc1c2ccccc2nc2ccccc12 | inactive: 1.38% | –
2 | O=C1COc2cccnc2N1 | inactive: -3.87% | –
3 | O=C(O)CSCC(=O)N1CCCN(c2nc3ccc(Cl)cc3s2)CC1 | inactive: -0.955% | –
4 | C/C(=N\NC1=NCCN1)c1ccc(Cl)cc1 | inactive: -3.04% | –
5 | CC(=O)NS(=O)(=O)c1ccc(NC(=O)c2cc3c(=O)n4ccccc4nc3s2)cc1 | inactive: -4.09% | –
6 | COc1ccccc1N1CC(C)(C)C(=O)N(C(=O)c2ccc(C)cc2)C1=S | inactive: -0.678% | –
7 | Cn1nc(-c2ccccc2)cc1NS(=O)(=O)c1ccccc1 | inactive: -0.754% | –
8 | CCCCc1c(C)nc(N2CCCC2)[nH]c1=O | inactive: -5.95% | –
9 | O=[N+]([O-])c1cccnc1Oc1ccccc1F | inactive: 2.26% | –
10 | CC1CC(=O)Nc2ccccc2N1S(=O)(=O)c1cccc(F)c1 (stereo unspecified) | inactive: -3.76% | –
11 | CCOc1ccc(OCc2ccc(C(=O)NN)o2)cc1 | inactive: -7.39% | –
12 | CCOc1ccc(-n2c(C)cc(/C=N/Nc3nc(C)cc(=O)[nH]3)c2C)cc1 | inactive: 1.92% | –
13 | c1cnc2c(c1)ccc1cccnc12 | – | active: 1120 nM
14 | Cc1c(C(=O)/C=C/N(C)C)nnn1-c1ccc(F)c(Cl)c1 | inactive: -5% | –
15 | CCOC(=O)Cc1c[nH]c(=S)[nH]c1=O | inactive: -0.0013% | –
16 | COc1ccc(CCn2cnc3c([nH]c4ccccc43)c2=O)cc1 | inactive: -4.1% | –
17 | NC(=O)/C(=C\c1ccncc1)c1cccc2ccccc12 | inactive: -2.14% | –
18 | Cn1ccc(=Nc2ccc(NC(=O)c3ccc(N=c4ccn(C)c5ccc([N+](=O)[O-])cc45)cc3)cc2)cc1 | inactive: -0.289% | –
19 | COC(=O)[C@@H](NC(=O)NC1CCCCC1C)C(C)C (stereo partly specified) | inactive: -1.3% | –
20 | Clc1nc(Cl)nc(-c2cn(-c3ccccc3)c3ccccc23)n1 | inactive: -5.14% | –
21 | CC1=CC2=NC(=O)/C(=C/c3coc4ccccc4c3=O)C(=N)N2O1 | inactive: 4.47% | –

Row | Compound | activity, negative = inhibition | Potency
22 | Cc1cc(C)c(OCC(=O)N(Cc2ccc(N(C)C)cc2)C2CCS(=O)(=O)C2)c(C)c1 (stereo unspecified) | inactive: -20.1% | –
23 | Cc1ccc(-c2cc(-c3ccco3)c3c(N)c(C(=O)NN)oc3n2)cc1 | inactive: 11.2% | –
24 | CCCCCCC(=O)N(O)C1CC(=O)N(c2ccc(Cl)cc2)C1=O (stereo unspecified) | inactive: -3.6% | –
25 | S=c1[nH]ccn1-c1ccccc1Cl | inactive: -10.1% | –
26 | CCOc1ccc(/C(C)=N/NC(=O)Cn2nc([N+](=O)[O-])cc2C)cc1 | inactive: -2.13% | –
27 | COC(=O)c1scc(C)c1NS(=O)(=O)c1ccc(NC(C)=O)cc1 | inactive: -8.25% | –
28 | CC1SCC(=NOCc2c(Cl)cccc2Cl)CS1 (stereo unspecified) | inactive: -2.32% | –
29 | Cc1ccc(C#N)c(SCc2ccccc2F)n1 | inactive: 4.1% | –
30 | CCCCn1cc([N+](=O)[O-])nc1C | inactive: -5.88% | –
31 | CCCn1nc(NC(=O)c2ccco2)c2cc3cc(C)ccc3nc21 | inactive: -1.98% | –
32 | S=C(Nc1ccccc1)Nc1nccs1 | inactive: -2.37% | –
33 | CC(C)(C)NC(=O)NCCc1ccccc1 | inactive: -1.62% | –
34 | CC(=O)c1c(COC(=O)c2ccccc2Cl)nc2ccccc2[n+]1[O-] | inactive: -3.37% | –
35 | CC(C)c1cc(C(C)C)n2nc(N)nc2n1 | inactive: -16.5% | –
36 | Cc1nc(-c2ccc(S(=O)(=O)N3CCCN(CCc4ccccc4)CC3)s2)cs1 | inactive: -8.4% | –
37 | O=C(c1ccc(-c2ccccc2)cc1)c1ccc([N+](=O)[O-])cc1 | inactive: -13% | –
38 | Cc1[nH]c(=S)c(C#N)c(C)c1Cc1ccc(Cl)cc1Cl | inactive: -3.7% | –
39 | COC(=O)c1ccc(CN2CCCCC2)cc1 | inactive: -5.13% | –
40 | CCOC(=O)c1nnn2c1nc(N1CCN(c3ccccc3)CC1)c1ccccc12 | inactive: 0.298% | –
41 | Cn1c(SCC(=O)N/N=C/c2ccncc2)nc2ccccc21 | inactive: -13.8% | –
42 | O=C1CN2CCC1C/C2=C\c1ccnc2c(Cl)cccc12 (stereo unspecified) | inactive: 0.762% | –

Row | Compound | activity, negative = inhibition | Potency
43 | CCOC(=O)c1sc(NNC(=O)c2ccc(C)cc2)nc1C | inactive: -9.91% | –
44 | CC1=CC(=O)CC(C)(C)C1(O)/C=C/C(C)=C/C(=O)O (stereo unspecified) | inactive: -3.77% | –
45 | CCCC(=O)NC(c1cccs1)c1cc([N+](=O)[O-])c2cccnc2c1O (stereo unspecified) | – | active: 3980 nM
46 | COc1cc(/C=N/Nc2ccc(S(N)(=O)=O)cc2[N+](=O)[O-])cc(OC)c1O | inactive: -20.2% | –
47 | C/C(=C\C(=O)Nc1cscc1C)C(=O)O | inactive: 0.983% | –
48 | O=C(Nc1ccccc1)N1CCCC1c1cccs1 (stereo unspecified) | inactive: -4.49% | –
49 | Cc1cccnc1NC(=O)c1csnn1 | inactive: -0.56% | –
50 | CCCCCCOc1ccc(N2C(=O)CC(NCc3ccc(S(N)(=O)=O)cc3)C2=O)cc1 (stereo unspecified) | inactive: 0.678% | –
51 | CCCCc1cc(=O)oc2cc(OCc3nn[nH]n3)ccc12 | inactive: -6.88% | –
52 | COc1ccc(CCNC(=S)NC(=O)c2cccc(Cl)c2)cc1OC | inactive: -24% | –
53 | O=C(/C=C/c1cccnc1)/C=C/c1cccnc1 | inactive: -5.39% | –
54 | COc1ccc(Cn2c(O)c(C=Nc3ccccc3C(=O)O)c3ccccc3c2=O)cc1 | inactive: -11.9% | –
55 | Cc1c(C(=O)c2ccccc2)oc2ccc3ccccc3c12 | inactive: 5.2% | –
56 | COc1ccc(-n2c(-c3ccc(Cl)cc3)c[n+]3c2CCCCC3)cc1 | inactive: -1.28% | –
57 | COc1cc(NCc2ccccc2O)c2ncccc2c1 | inactive: -15.9% | –
58 | COC(=O)CNC(=O)CSc1ccccn1 | inactive: 6.43% | –
59 | COc1ccc(N/N=C(\C#N)C(=N)N2CCCCC2)cc1 | inactive: -24.9% | –
60 | CC(C)(C)S(=O)(=O)/C(C#N)=C/Nc1ccccn1 | inactive: -2.32% | –
61 | N#CCN1CCC2(O)CCCCC2C1c1ccc2c(c1)OCO2 (stereo unspecified) | inactive: -3.82% | –
